# Reference: publication PMC4336329 (PLoS ONE, 2015)
# The campaign covered roughly 310,000 compounds. About 14,000 (4.5%) showed an effect of 50% or more. Effects have a minus sign here. Some of the results follow.
# Biological target: human ether-à-go-go-related gene (hERG) potassium channel (human, UniProt Q12809)
# Assay: primary screen, population patch clamp on CHO cells stably expressing hERG
# 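Further: peak tail current of the secondary pulse compared with the same well before compound.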
# human ether-à-go-go-related gene (hERG) potassium channel, sequence (Q12809 whole entry, looked up): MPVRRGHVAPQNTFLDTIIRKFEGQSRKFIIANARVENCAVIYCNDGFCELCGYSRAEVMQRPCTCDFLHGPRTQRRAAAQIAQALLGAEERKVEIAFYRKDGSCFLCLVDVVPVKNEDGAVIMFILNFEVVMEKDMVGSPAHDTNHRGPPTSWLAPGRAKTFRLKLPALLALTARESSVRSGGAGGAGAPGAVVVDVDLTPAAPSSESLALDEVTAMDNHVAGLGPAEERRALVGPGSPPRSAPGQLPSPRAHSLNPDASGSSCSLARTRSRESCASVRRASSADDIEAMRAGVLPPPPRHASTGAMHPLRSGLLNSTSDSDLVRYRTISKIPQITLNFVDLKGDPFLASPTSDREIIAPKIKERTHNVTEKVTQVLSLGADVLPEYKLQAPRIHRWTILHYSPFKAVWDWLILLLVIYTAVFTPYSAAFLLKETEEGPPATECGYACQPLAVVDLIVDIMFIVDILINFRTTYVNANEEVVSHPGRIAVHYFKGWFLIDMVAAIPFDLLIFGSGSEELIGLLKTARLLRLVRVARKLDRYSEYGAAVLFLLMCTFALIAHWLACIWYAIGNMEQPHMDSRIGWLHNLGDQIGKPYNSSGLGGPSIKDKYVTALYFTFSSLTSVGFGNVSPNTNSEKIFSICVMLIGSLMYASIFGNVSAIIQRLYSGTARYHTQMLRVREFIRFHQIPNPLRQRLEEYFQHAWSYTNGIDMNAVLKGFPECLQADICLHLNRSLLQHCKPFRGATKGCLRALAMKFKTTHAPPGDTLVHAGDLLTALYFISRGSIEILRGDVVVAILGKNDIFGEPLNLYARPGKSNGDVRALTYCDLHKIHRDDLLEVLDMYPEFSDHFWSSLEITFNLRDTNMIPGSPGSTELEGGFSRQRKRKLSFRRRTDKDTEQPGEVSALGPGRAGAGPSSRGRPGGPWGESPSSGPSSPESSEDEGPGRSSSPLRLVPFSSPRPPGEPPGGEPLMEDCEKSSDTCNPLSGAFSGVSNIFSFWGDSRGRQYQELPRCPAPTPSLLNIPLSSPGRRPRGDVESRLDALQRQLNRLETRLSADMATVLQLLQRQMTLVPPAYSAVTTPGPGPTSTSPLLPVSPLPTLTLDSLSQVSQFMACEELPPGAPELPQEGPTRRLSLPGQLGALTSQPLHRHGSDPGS
row,Structure (SMILES),"hERG current change (%, negative = inhibition) at 10uM"
1,CCC1=C(OC(=O)N(CC)CC)N2C(=O)OC(=NCC(=O)OC)[C@]2(Cc2ccccc2)[C@H]2C1=CC[C@H]1C(=O)N(C)C(=O)[C@H]12,2.27%
2,COCCN1C(=O)C(CC(=O)Nc2ccc(C(=O)O)cc2)SC1=Nc1ccccc1 (stereo not drawn),11.6%
3,O=C(NCCC1CCCC1)C1CCC(=O)N(CCCN2CCCC2=O)C1 (stereo not drawn),20.3%
4,Cc1ccc(C=Nc2ccccc2C#N)s1,-7.7%
5,O=C(NCC1CCCO1)c1ccc(CNS(=O)(=O)c2ccc(F)c(Cl)c2)cc1 (stereo not drawn),0.715%
6,CCc1ccc(NC(=O)C2C3C=CC(C4CC34)C2C(=O)O)cc1 (stereo not drawn),-4.43%
7,CC#CCCCC(=O)Nc1ccccc1C(=O)O,-3.63%
8,Cc1csc(NS(=O)(=O)c2cccc([N+](=O)[O-])c2)n1,12.3%
9,O=C(CSc1nnc(COc2ccc(Cl)cc2Cl)o1)Nc1ccccn1,12.3%
10,O=C(NNC1=C(C(=O)C(F)(F)F)CCC1)c1ccccc1Cl,13%
11,CC(C)C(=O)Nc1ccc(C(=O)NN2C(=O)c3ccccc3C2=O)cc1,9.54%
12,COc1cccc2cc(C(=O)N(C)C3CCN(C)CC3)c(=O)oc12.Cl,6.91%
13,COC(=O)CCCC1=CC2=CC(=O)C(C)(OC(=O)c3cccs3)C(=O)C2=CN1Cc1ccco1 (stereo not drawn),-8.14%
14,O=C(O)C1(NS(=O)(=O)c2ccc(Cl)cc2)CCCCC1,-1.51%
15,COc1ccc(CCNC(=O)c2ccc(Cl)cc2Cl)cc1,2.26%
16,CCN(CC(=O)Nc1ccc(OC)cc1)C(=O)c1ccc(N2C(=O)CCC2=O)cc1,2.82%
17,O=C(c1cc(Br)ccc1Cl)N1CCN(c2ncccn2)CC1,-12.8%
18,CN1CCC(N(C)CC(=O)Nc2ccccc2N2CCOCC2)CC1.O=C(O)C(=O)O,-13.8%
19,OC1CCCN(C(=S)Nc2ccc(SC(F)F)cc2)C1 (stereo not drawn),-9.96%
20,Cc1cccc(NC(=O)CSc2nnc(-c3ccco3)o2)c1C,-4.42%
21,CCOc1ccc(C(=O)Nc2ccc(NC(=O)c3ccccc3)cc2)cc1Br,9.48%
22,CCn1cc(C(=O)NCCC(C)C)c(=O)c2cc(F)c(N3CCN(C(=O)c4ccco4)CC3)cc21,-11.3%

row,Structure (SMILES),"hERG current change (%, negative = inhibition) at 10uM"
1,CCn1nnnc1NC(=O)c1ccc2ccccc2c1,-2.9%
2,COCCn1nnnc1C(c1ccc(OC)cc1)N1CCN(c2ccccc2F)CC1.Cl (stereo not drawn),-8.29%
3,COCC(C)NC(=O)c1cc(-c2cccc(OC)c2)on1 (stereo not drawn),15%
4,Cc1ccc(S(=O)(=O)N2CCCC(C(=O)NCC3CCCO3)C2)cc1 (stereo not drawn),13.9%
5,CCOC(=O)N1CCC(NC(=O)CS(=O)(=O)Cc2nc(-c3ccccc3Cl)oc2C)CC1,-3.72%
6,CC[C@H](C)[C@@H](C(=O)N1CCNCC1)n1cc([C@@H](N)Cc2ccc(O)cc2)nn1.Cl,9.94%
7,CCC(C)N(C(=O)COc1ccc(-c2nnco2)cc1)C1CCS(=O)(=O)C1 (stereo not drawn),-8%
8,CCCC(CCC)C(=O)NCCN1CCOCC1.Cl,2.7%
9,Fc1ccc(Br)cc1C1C=C(c2ccc(Br)s2)Nc2ncnn21 (stereo not drawn),9%
10,COc1ccccc1-c1ccc(/C=N/O)o1,11%
11,CCOc1ccc(CCNC(=O)CCn2nc(C)c3c(C)n(-c4ccccc4)nc3c2=O)cc1,-11.9%
12,CCCCCCCCN1[C@@H](CC(=O)O)c2cc(F)ccc2S1(=O)=O,7.81%
13,COc1cccc(NC(=O)COc2coc(CN3CCc4ccccc4C3)cc2=O)c1,6.68%
14,O=C(CNC(=O)c1ccncc1)N/N=C/c1cccc([N+](=O)[O-])c1,-10.2%
15,Cc1cccc(C(=O)Nc2cccc(S(=O)(=O)NCc3ccco3)c2)c1,1.6%
16,CNS(=O)(=O)c1ccc(CCC(=O)N2CCOCC2)cc1,13.6%
17,CC1Cc2cc(S(=O)(=O)N3CCN(c4cccc(Cl)c4)CC3)ccc2N1C(=O)C1CC1 (stereo not drawn),23%
18,COc1ccc(C2CC2/C(=N/O)c2ccccn2)cc1 (stereo not drawn),5.57%
19,CCOC(=O)C1=C(COC(=O)c2cccc(Cl)c2)NC(=O)NC1C (stereo not drawn),-0.354%
20,O=[N+]([O-])c1ccc(Cl)c(NC2=NCCCCC2)c1,5.89%
21,O=C(NCCc1ccccc1)c1cccs1,2.92%
22,O=c1c2ccccc2nc(/C=C\c2ccccc2[N+](=O)[O-])n1-c1ccccc1O,-22.8%

row,Structure (SMILES),"hERG current change (%, negative = inhibition) at 10uM"
1,Cc1noc(C)c1C(=O)N1CCC(CO)(Cc2ccccc2)CC1,-3.05%
2,COCCN(CCNC(=O)c1ccc(NC2=NC3CS(=O)(=O)CC3S2)cc1)Cc1ccco1 (stereo not drawn),-13.9%
3,CCN(CC)c1c([N+](=O)[O-])c(=O)oc2ccccc12,-8.9%
4,O=C(CCCC(=O)n1cnc2ccccc21)n1cnc2ccccc21,6.71%
5,O=C(CCC1CCCN(C(=O)c2ccoc2)C1)NCc1ccccc1F (stereo not drawn),-2.72%
6,Cc1ccc(S(=O)(=O)N2CCC(C(=O)O)CC2)cc1,27.9%
7,CCC(C)(C(=O)NC1CCCCC1)N(C)C(=O)c1ccc2c(c1)OCO2 (stereo not drawn),12%
8,COCc1nnc(NC(=O)c2ccc(S(=O)(=O)N(CC(C)C)CC(C)C)cc2)o1,-7.19%
9,CCOc1ccccc1N1CCN(C(=O)c2cc(-c3cccnc3)nc3c(Cl)cccc23)CC1,1.84%
10,CC(=O)Nc1cccc(C(=O)OCC(=O)c2ccccc2Cl)c1,7.03%
11,COc1cc(/C=N/NC(=O)Cc2ccccc2)ccc1Oc1ccc([N+](=O)[O-])cc1[N+](=O)[O-],1.03%
12,CCN(CC)S(=O)(=O)N1CCC(C(=O)NCCC2=CCCCC2)CC1,-3.66%
13,Cc1ccnc(NC(=O)CCC(=O)N(CC(=O)NCc2ccc(F)cc2)Cc2ccccc2)c1,-33.3%
14,Cc1csc(NC(=O)CSc2nnc(Cc3cccn3C)n2-c2ccc(F)cc2)n1,-7.8%
15,COc1ccc(CCNC(=O)C(=O)c2c(C)n(C)c3ccccc23)cc1OC,10.9%
16,COc1cccc(/C=C/C(=O)c2ccc3c(c2)OCO3)c1OC,1.82%
17,Cc1nnc(SC(C)C(=O)Nc2ccc3ccccc3c2)n1C (stereo not drawn),-3.23%
18,O=C(Oc1ccc(-c2nnco2)cc1)N1CCCCC1,7.42%
19,O=C1N=C(N2CCCCC2)SC1=C1CCCCC1,-9.8%
20,CS(=O)(=O)N1CCc2cc(C(=O)Nc3ccc(COCC(F)(F)F)cc3)ccc21,5.62%
21,Cc1c(C(=O)N2CCCC2)nnn1-c1nonc1N,8.67%
22,O=[N+]([O-])c1ccc(/C=N/Nc2nc(-c3ccccc3)c3cc(Br)ccc3n2)o1,-4.84%

row,Structure (SMILES),"hERG current change (%, negative = inhibition) at 10uM"
1,CCCNC(=O)NC(=O)COC(=O)c1oc2ccc(OCC)cc2c1C,3.45%
2,Cc1oc(C)c(C(=O)O)c1C(=O)O,16%
3,CN(Cc1ccccc1)S(=O)(=O)c1ccc(NC(=O)c2ccccc2C(=O)O)cc1,-5.78%
4,O=C1C2C3C=CC(C3)C2C(=O)N1c1ccc(-c2nc3ccccc3o2)cc1 (stereo not drawn),15.6%
5,CCCCOc1ccc(-c2nnn(CC(=O)NCCc3c[nH]c4ccccc34)n2)cc1,-4.29%
6,O=C(C1CCN(S(=O)(=O)c2cccc3nsnc23)CC1)N1CCc2ccccc2C1,-42.4%
7,CCCn1c(C)cc(=O)c2cc(NC(=O)c3ccccn3)ccc21,-32.9%
8,COc1ccccc1NC(=O)CN1C(=O)CC(C)S(=O)(=O)c2ccccc21 (stereo not drawn),-5.13%
9,Cc1nc(Nc2ccccc2)[nH]c(=O)c1CCC(C)C,2.21%
10,O=C(NCc1cccs1)c1cccc(S(=O)(=O)N2CCCCC2)c1,-29.5%
11,O=C(Nc1cccc(C(F)(F)F)c1)c1cc(Br)cc2c1OCC2,7.24%
12,CC(=O)Nc1cccc(NC(=O)c2cccc(-c3ccc(O)cc3)c2)c1,-2.6%
13,CCOc1cc(C2C(C(=O)OC)=CN(C3CCCC3)C=C2C(=O)OC)cc(Br)c1O,-1.51%
14,O=P(c1ccccc1)(c1ccccc1)c1ccc(O)cc1,3.4%
15,CC(=O)Nc1ccc(C2NC(=O)c3ccccc3O2)cc1 (stereo not drawn),3.49%
16,COc1ccc(C2(O)CCN(C(=O)c3ccc4c(c3)OCO4)CC2)cc1,-0.242%
17,O=C(NCc1cccnc1)c1cccc(S(=O)(=O)N2CCCCC2)c1,-5.56%
18,Cc1cnc(C(=O)OCC(=O)NC2CCCCCCC2)cn1,7.16%
19,COc1ccc(-n2c(=S)[nH]c3cc(C(=O)NCc4ccccc4)ccc3c2=O)c(OC)c1,20.9%
20,O=C(CCCN1C(=O)c2ccccc2C1=O)NC1CCCCCC1,4.1%
21,CCOC(=O)c1c(NC(=O)C2COc3ccccc3O2)sc2c1CCN(Cc1ccccc1)C2.Cl (stereo not drawn),0.603%
